From PubChem BioAssay AID1645882 (National Center for Advancing Translational Sciences (NCATS), 2021)
The campaign covered roughly 16,000 compounds. About 120 (0.75%) were called active. Inconclusive results (about 4%) are left out. Calls come from the whole dose curve; as a rule, active = well fitted inhibition curve with a large enough effect; inconclusive = small, poorly fitted or top-dose-only effect; inactive = no such curve, though single readings can be large or run the other way. Some of the results follow. Where a SMILES comes first, the peptide text is derived from it. Bridges are numbered along the chain shown (N, C = ends). [ ]: non-standard residue; d: D form. Orn = NCCC[C@H](N)C(=O)O; Mpa = O=C(O)CCS

Target: Rap guanine nucleotide exchange factor 3 (Homo sapiens) (UniProt O95398)
Assay: Validation qHTS for antagonist of cAMP-regulated guanine nucleotide exchange factor 3 (EPAC1); note: nearly all actives have a fitted effect of over 75% in size
Conditions: EPAC1 Rap1B-BODIPY-GDP exchange, fluorescence; series mostly up to 150 µM; activity change, negative = inhibition: at the top concentration
Outline: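 EPAC1 (100 nM) mixed with 250 nM RAP1B-BODIPY-GDP and 50 uM GDP; compounds in concentration series, 5 min at room temperature. Fluorescence (ex 480/em 540 nm) read every 5 min for 30 min; normalized to ATA control and DMSO.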

UniProt O95398, sequence (O95398 whole entry, looked up): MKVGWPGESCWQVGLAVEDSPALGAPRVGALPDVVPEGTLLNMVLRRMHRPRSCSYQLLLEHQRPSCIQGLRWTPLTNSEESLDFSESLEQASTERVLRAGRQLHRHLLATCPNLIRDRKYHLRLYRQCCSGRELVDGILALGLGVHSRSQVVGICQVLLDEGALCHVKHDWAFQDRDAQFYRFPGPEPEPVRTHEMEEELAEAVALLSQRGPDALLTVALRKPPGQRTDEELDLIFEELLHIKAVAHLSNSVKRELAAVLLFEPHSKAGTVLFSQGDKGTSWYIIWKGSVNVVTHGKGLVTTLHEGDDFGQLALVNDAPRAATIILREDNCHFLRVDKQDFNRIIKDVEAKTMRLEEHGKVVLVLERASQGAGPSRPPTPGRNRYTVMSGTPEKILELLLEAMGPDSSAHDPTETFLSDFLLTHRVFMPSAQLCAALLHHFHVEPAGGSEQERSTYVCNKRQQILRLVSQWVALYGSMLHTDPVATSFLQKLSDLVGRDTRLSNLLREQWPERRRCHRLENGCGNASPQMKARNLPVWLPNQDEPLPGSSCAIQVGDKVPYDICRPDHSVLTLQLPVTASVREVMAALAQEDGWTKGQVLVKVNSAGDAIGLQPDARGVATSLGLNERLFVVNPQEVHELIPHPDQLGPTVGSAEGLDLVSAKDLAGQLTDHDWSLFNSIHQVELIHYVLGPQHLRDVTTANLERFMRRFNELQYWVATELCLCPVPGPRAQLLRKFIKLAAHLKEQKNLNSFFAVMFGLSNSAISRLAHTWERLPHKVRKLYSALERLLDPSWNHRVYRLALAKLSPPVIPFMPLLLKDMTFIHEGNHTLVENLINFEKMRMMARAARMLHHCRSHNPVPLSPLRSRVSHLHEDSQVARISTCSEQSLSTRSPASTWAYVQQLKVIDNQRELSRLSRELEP

Compound	activity change, negative = inhibition
CCCn1c(=O)[nH]c2nc(-c3ccc(S(=O)(=O)O)cc3)[nH]c2c1=O	inactive: -11.9%
CCCCCCCCCC(=O)NC(CN1CCOCC1)[C@H](O)c1ccccc1 (stereo not given in full)	inactive: -6.76% [at 75.8 µM]
Cc1ccc(SC[C@H](C)CN2CC[C@H](C)CCC2=O)cc1	inactive: -20.5%
COc1ccccc1CN1CC[C@@]2(CCCN(S(=O)(=O)c3ccccc3)C2)C1	inactive: 14.1%
COc1ccc(-c2cn(CCc3c[nH]c4ccccc34)nn2)cc1	inactive: -18%
CCc1noc(C)c1C(=O)N1CCOc2ccc(CN3CCCC(C(=O)c4cccnc4)C3)cc2C1 (stereo not given)	inactive: 1.42%
COc1ccccc1N1CCN(CCCCN2C(=O)CCC2=O)CC1	inactive
C[N+]1(CC(=O)c2ccc(F)cc2)CCc2ccccc2C1 (stereo not given)	inactive: 20.1%
CC(=O)N1CCC[C@H]1C(=O)NCC1Cc2cc(F)cc(-c3ccc(F)c(C)c3)c2O1 (stereo not given in full)	inactive: 16.7%
COc1cc(N)c(Cl)cc1C(=O)N[C@H]1CCN(CCCOc2ccc(F)cc2)C[C@@H]1OC	inactive: -4.5%
CN(C)CCCN1c2ccccc2Sc2ccc(Cl)cc21	inactive
CCOC(=O)c1c(C)cc(O)cc1O	inactive: 6.65%
CCCC1(C)C(C#N)(C#N)C1(C#N)C#N	inactive: -3.18% [at 75.8 µM]
O=C(c1ccco1)N1CCC2(CC1)CN(C(c1ccccc1)c1ccccc1)C2	inactive: 9.38%
O=C(NCCc1nnc2n1CCN(Cc1ccc(F)cc1)CC2)c1ccc(F)cc1	inactive: 11.9%
CCCCCCCCCCCCCCCCOC[C@H](COP(=O)([O-])OCC[N+](C)(C)C)OC(=O)NC	inactive: -10.4% [at 15.3 µM]
CCOc1ccc(C[C@H]2NC(=O)CCSSC[C@@H](C(=O)N3CCC[C@H]3C(=O)N[C@@H](CCCN)C(=O)NCC(N)=O)NC(=O)[C@H](CC(N)=O)NC(=O)[C@H]([C@@H](C)O)NC(=O)[C@H]([C@@H](C)CC)NC2=O)cc1 ([Mpa][dY](Et)ITNCP[Orn]G-NH2; disulfide 1-6)	inactive: 7.37%
H-EQKQLQ-OH	inactive: 25.4% [at 15.3 µM]
Cc1noc(C)c1-c1nccc(N(C)C)n1	inactive: -2.06%
COc1cc(-c2ccc(-[n+]3nc(-c4ccccc4)nn3-c3ccc([N+](=O)[O-])cc3)c(OC)c2)ccc1-[n+]1nc(-c2ccccc2)nn1-c1ccc([N+](=O)[O-])cc1	inactive: 13.5%
COc1ccc(-c2coc3ccc(OC4OC(COC(C)=O)C(OC(C)=O)C(OC(C)=O)C4OC(C)=O)c(OC(C)=O)c3c2=O)cc1 (stereo not given)	inactive: 8.03%
Cc1noc(C)c1CC(=O)N1CCOc2c(cc(-c3nc4ccccc4s3)cc2OC2CCOC2)C1 (stereo not given)	inactive: -11.8%
Cc1cc(O)c2ccccc2c1O	inactive: 2.15%
O=c1ccc2ccccc2o1	inactive: 0.218%
COc1cccc(Cn2c(=O)c(-c3cccs3)nc3cnc(OC)nc32)c1	inactive: 7.54%
